# “And” between values parts separate entries of the source, which are not always exact repeats. Identical values can stand only once. In all, about 360,000 compounds went through this assay and about 7,500 (2.1%) were called active. The shares of active, inactive and inconclusive entries below differ from those in the screen. Calls follow the shape of the dose curve; as a rule, active = well fitted cell-killing curve with a large enough effect; inconclusive = small, poorly fitted or top-dose-only effect, or effect the other way, or another doubt; inactive = no such curve, though single readings can be large or run the other way. A potency beside an inconclusive call is a rough fit, not a confirmed value.
# Assay: qHTS for induction of synthetic lethality in tumor cells producing 2HG: qHTS for the HT-1080-IDH1KD cell line;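 as to activity, negative = toxicity: 0% = DMSO wells and -100% = cell-free medium wells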
# Conditions: HT-1080 IDH1 knockdown viability, ATP luminescence, 48 h; activity, negative = toxicity: at 46.1 µM (top of the series) unless noted
# Summary of the method: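 HT-1080-IDH1KD cells (IDH1 knocked down), 750/well in RPMI with 5% FBS, treated with compound 48 h at 37 degrees C. Viability by CellTiter-Glo luminescence, normalised to DMSO and no-cell wells; concentration-response curves classed.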
# Potency is read from the fitted curve at half-maximal effect; tags tell the direction and shape of the fitted curve.
SMILES,Potency,"activity, negative = toxicity"
O=[N+]([O-])c1ccccc1S(=O)(=O)Nc1ccc2c(c1)OCCO2,inactive,
Cc1cc(Cl)ccc1OC(C)C(=O)NCCCn1ccnc1 (stereo not given),inactive,
COCCCNc1nc2ccccc2nc1NS(=O)(=O)c1ccc(C)cc1C,inactive,
O=C(CSCC(=O)N1CCCCC1)Nc1nc(-c2ccccc2)c(-c2ccccc2)s1,"inconclusive: 29.1 µM [cytotoxic, single point]",
Cn1cc([N+](=O)[O-])c(C(=O)Nc2ccn(C34CC5CC(CC(C5)C3)C4)n2)n1,"inconclusive: 20.6 µM [cytotoxic, single point]",
CC(=O)CSc1ncnc2c1oc1ccccc12,inactive,
Cc1cccc(NC(=O)c2sc3nc(-c4ccc(F)cc4)cn3c2C)n1,inactive,
Cc1ccccc1NC(=O)c1csc2c1CCCC2,"inconclusive: 35.5 µM [cytotoxic, single point]",
O=C(CCl)N1CCCC1c1ccc2c(c1)OCCO2 (stereo not given),active: 18.4 µM,
O=C(CSc1ccccc1F)NCC(c1cccs1)N1CCOCC1 (stereo not given),inactive,
COc1ccc(CCNC(=O)CSc2nc(N)c(C#N)c(-c3cccs3)c2C#N)cc1OC,"inconclusive: 35.5 µM [cytotoxic, single point]",
N#CC(C#N)=C(Nc1ccc(F)cc1)SCc1cccc(F)c1,"inconclusive: 3.66 µM [cytotoxic, partial curve, poor fit]",
CCN(C(=O)CN1C(=O)NC2(CCc3ccccc32)C1=O)C1CCCCC1 (stereo not given),inactive,
CCn1nc(C)c(CN2CCC(C(=O)Nc3cccc(-c4cccc(Cl)c4)c3)CC2)c1C,,inconclusive: 0% [cytotoxic]
COc1cc(/C=C2\CCC/C(=C\c3ccc(O)c(OC)c3)C2=O)ccc1O,active: 5.8 µM,
Cc1cccc(C(=O)N[C@H](C(=O)Nc2ccc(C)c(S(=O)(=O)N(C)C)c2)C(C)C)c1,inactive,
COc1ccc(C2=NS(=O)(=O)N(C)C(C(=O)NCc3ccccc3)=C2)cc1OC,inactive,
N#Cc1ccc(N=c2ssnc2Cl)cc1,"inconclusive: 29.1 µM [cytotoxic, single point] and inconclusive: 10.3 µM [cytotoxic, single point]",
O=C(NCc1cccc(Cl)c1)c1cnn2c1NC(c1ccco1)CC2C(F)(F)F (stereo not given),"inconclusive: 12.6 µM [cytotoxic, single point]",
COc1cc(/C=C/C(=O)OCC(=O)N2CC3(C)CC2CC(C)(C)C3)ccc1O (stereo not given),inactive,
N#Cc1ccc(-c2cccc3nccn23)cc1,"inconclusive: 18.4 µM [rising, single point]",
CN1CCCN(C(=O)c2ccc(Br)cc2)CC1,"inconclusive: 16.4 µM [rising, partial curve, poor fit]",
N#C/C(=C\c1ccc(F)c(Br)c1)C(=O)NC1CC1,inactive,
Cc1cc(C)c(NC(=O)CSc2nc(COc3ccccc3)nc3ccccc23)c(C)c1,"inconclusive: 3.16 µM [cytotoxic, single point]",
O=C(NC(c1ccc(Cl)cc1)c1ccsc1)C1CCN(CCOc2ccc(Cl)cc2)CC1 (stereo not given),"inconclusive: 29.1 µM [cytotoxic, single point]",

SMILES,Potency,"activity, negative = toxicity"
N#CC1=C2SCC(O)(c3ccccc3)N2C(=O)CC1c1ccccc1 (stereo not given),"inconclusive: 1.64 µM [cytotoxic, full curve]",
CN(C)CCN1CCN(C2CN(Cc3cn(Cc4ccccc4)nn3)S(=O)(=O)C2)CC1 (stereo not given),"inconclusive: 18.4 µM [rising, partial curve]",
CC(C)OC(=O)C(=O)NNc1ccccc1,active: 9.2 µM,
Cc1nn(CC(=O)NCC(C)c2ccccc2)c(=O)c2cc3occc3n12 (stereo not given),"inconclusive: 20.6 µM [rising, partial curve]",
CCOC(=O)CSC1=C(C#N)C(c2sccc2C)CC(=O)N1 (stereo not given),active: 1.41 µM,
CCCCNC(=S)Nc1cccc2cnccc12,inactive,
CCOc1ccc(-c2nc(N)ncc2Oc2ccccc2Br)c(O)c1,active: 23.1 µM,
COc1ccc(/C(C)=N/NC(=O)CNC(=O)CCc2ccccc2)c(OC)c1,"inconclusive: 23.1 µM [cytotoxic, partial curve, poor fit]",
CCCCOC(=O)c1ccc(NC(C)=O)cc1,inactive,
NCC(c1ccccc1Cl)c1c[nH]c2ccccc12 (stereo not given),"inconclusive: 23.1 µM [cytotoxic, single point]",
O=C(NNC(=O)C(c1ccccc1)c1ccccc1)c1ccccc1O,"inconclusive: 13 µM [cytotoxic, partial curve]",
Cc1cccc(-c2noc(Cc3ccccc3)n2)c1,,inconclusive: 55.6%
O=[N+]([O-])c1cccc2ccc(/C=C/c3ccc(F)cc3)nc12,"inconclusive: 8.2 µM [cytotoxic, partial curve]",
O=C(NC(NC1CCS(=O)(=O)C1)C(Cl)(Cl)Cl)c1ccc(Br)cc1 (stereo not given),"inconclusive: 20.6 µM [cytotoxic, single point]",
FC(F)(F)c1cccc(Nc2nc(N3CCOCC3)nc(N3CCOCC3)n2)c1,inactive,
Cc1cccn2c(=O)c3cc(C(=O)NC4CCCC4)n(C)c3nc12,"inconclusive: 2.91 µM [cytotoxic, partial curve, poor fit]",
CCOC(=O)C1=CCN(S(=O)(=O)c2ccc(F)cc2)C1c1cccc(F)c1 (stereo not given),inactive,
CCCC(C)C(=O)Nc1nc(C)c(-c2csc(Nc3cc(Cl)ccc3C)n2)s1 (stereo not given),inactive,
CC(=O)C1CCCN(C(=O)c2ccc3oc(CCc4ccccc4)nc3c2)C1 (stereo not given),inactive,
Cn1cc([N+](=O)[O-])c(C(=O)Nc2ccc(C(=O)N3CCCCC3)cc2)n1,active: 23.1 µM,
COc1ccc(NC(=O)CSc2nc(N)c3cc4c(nc3n2)CCCC4)c(OC)c1,"inconclusive: 10 µM [cytotoxic, partial curve]",
COc1cc(NC(=O)NCC2CCN(Cc3ccccc3F)CC2)cc(OC)c1,inactive,
Cc1c(Cl)cccc1NC(=O)CCN1CCOCC1,inactive,
O=c1c2ccccc2sn1-c1ccc(S(=O)(=O)N2CCCCC2)cc1,inactive,
CCCC(=O)NC(c1ccco1)c1cc(Cl)c2cccnc2c1O (stereo not given),active: 10.3 µM,

# — PubChem BioAssay AID686971 (National Center for Advancing Translational Sciences (NCATS), 2013)
